Results: ChEMBL document CHEMBL4888484, “Replenishing the malaria drug discovery pipeline: Screening and hit evaluation of the MMV Hit Generation Library 1 (HGL1) against asexual blood stage Plasmodium falciparum ,using a nano luciferase reporter read-out” (2022)
Hit rate of the full screen: of about 150,000 compounds, about 540 (0.36%) showed an effect of 50% or more. The list shows a part of the results.

tested on: Plasmodium falciparum; test: Primary screen in NF54 nanoGlo assay, in single point, at 2uM, 72h; a lower Z score goes with more inhibition; format: functional, Erythrocyte; settings: timepoint 72 hour

| SMILES | % Inhibition [%] | Z score |
| --- | --- | --- |
| COC(=O)c1c(-c2cccc(Cl)c2)noc1NCc1cccc(Cl)c1 | -1 | 0.25 |
| O=C(Cc1cccnc1)N[C@@H]1[C@H]2CCO[C@H]2[C@H]1Cc1ccccc1 | 12 | -1.64 |
| Cc1cccc2[nH]c(C3CCN(Cc4cnc(N(C)C)s4)CC3)nc12 | 6 | -0.79 |
| CC[C@@H]1CN(C(=O)c2cccc(NC(=O)c3ccco3)c2C)CC[C@]1(C)O | -3 | 0.4 |
| CCOC1CC(O)(CNC(=O)Cc2c(F)cccc2F)C1(C)C (stereo not given) | -2 | 0.19 |
| CC[C@]1(CO)CCCN(c2nccn3nc(C)cc23)C1 | 0 | 0.04 |
| COCc1noc(-c2cccc3c2ccn3C)n1 | -5 | 0.5 |
| O=S(=O)(Cc1ccccc1)Nc1nnc[nH]1 | 29 | -4.17 |
| CC(C)C(=O)NCc1csc(C2CCN(C(=O)c3ccco3)CC2)n1 | -18 | 2.31 |
| C[C@@H]1Oc2ccc(NS(=O)(=O)c3ccc(F)cc3)cc2NC1=O | -4 | 0.79 |
| O=C(Cn1cnc2ccccc2c1=O)N1C[C@@H]2C[C@@H](C1)C1CCCC(=O)N1C2 (stereo not given in full) | 1 | -0.11 |
| O=C(NCc1cccs1)[C@H](Cc1ccccc1)N1CCCOC1=O | 1 | -0.14 |
| CCCCn1c(C(=O)NCc2ccccc2)cc2cc(NC(=O)CC)ccc21 | 1 | -0.15 |
| C[C@H](NCc1ccccc1)C1CCCc2ccccc21 (stereo not given in full) | 1 | -0.11 |
| O=C(NCc1cccnc1-c1ccccc1)c1ccc(Br)o1 | -5 | 0.64 |
| COC(=O)C1CC23CCCN4CCC5(c6ccccc6NC15C2C)C43 (stereo not given) | -11 | 1.01 |
| CN(C)Cc1nnc([C@H]2C[C@@H](NC(=O)c3n[nH]c4c3CCCC4)C2)n1C | -14 | 1.38 |
| Cn1cc(CN2CCC(C(=O)N3CCCC3)CC2)c(-c2ccccc2F)n1 | -8 | 1.02 |
| CCC(NC(=O)NC(C)C(=O)N(C)C)c1ccc(F)cc1F (stereo not given) | 0 | 0.03 |
| COc1ccccc1C(=O)N1CCN(c2nc(Cc3ccc(C)cc3)nc3c2c(C)nn3-c2ccccc2)CC1 | -24 | 2.13 |
| O=C(Cn1cc(Br)cn1)N1CCCc2ccccc21 | -9 | 1.2 |
| Cc1ccc(OCC(=O)N[C@H]2CN(C(CO)CO)C[C@@H]2C(C)C)cc1 | 3 | -0.38 |

| SMILES | % Inhibition [%] | Z score |
| --- | --- | --- |
| CC1CCC(C(C)C)C(OC(=O)COC(=O)c2ccncc2)C1 (stereo not given) | -10 | 1.31 |
| O=C(NCCCC1CCCCO1)NC1COc2cc(F)cc(F)c21 (stereo not given) | -12 | 1.21 |
| O=C(CCS(=O)(=O)c1ccc(Cl)cc1)Nc1nnc(-c2cc(Cl)ccc2Cl)o1 | -12 | 2.36 |
| CCc1nnc(CN(c2ccc(Cl)cc2F)S(C)(=O)=O)s1 | -4 | 0.37 |
| O=S(=O)(NC1CCCCNC1)[C@H]1C[C@@H]1c1ccccc1 (stereo not given in full) | -8 | 1.29 |
| Cn1cc(C(=O)Nc2cc(F)ccc2F)c(=O)[nH]c1=O | -5 | 0.48 |
| CS(=O)(=O)c1ccc(NCC(F)(F)CN)c(F)c1 | -5 | 0.69 |
| Cn1c(-c2ncccc2C(=O)N2CCCC2)cc2ccccc21 | 9 | -1.2 |
| O=C(CCCn1ccnc1)Nc1cccc(Cl)c1O | -4 | 0.71 |
| Cc1c(-c2nn(-c3ccccc3)c(-c3cnn(C)c3C)c2Cl)cnn1C | 39 | -4.45 |
| CC(C)O[C@@]1(Cn2nnnc2C=Cc2ccccc2)CCOC1 | 15 | -1.9 |
| CC(C)CN1C[C@@H](NCc2ccc(F)c(F)c2)C[C@H]1C(=O)NCCc1ccccc1F | -12 | 1.44 |
| COc1cc(OC)cc(C(=O)N2c3ccccc3[C@](C)(c3ccccc3)CC2(C)C)c1 | 5 | -0.65 |
| C[C@@H]1Oc2ccc(NC(=O)NCc3ccccc3)cc2NC1=O | -4 | 0.72 |
| CO[C@H]1CCOC[C@@H]1NC(=O)Nc1ccncc1N(C)C | -9 | 1.53 |
| CC(C)c1nnc(CNC(C)C2CCCO2)n1C (stereo not given) | 0 | -0.06 |
| CCN(CC)[C@@]1(c2nnnn2C2CCCC2)CCN(C(=O)c2cccnc2)C1 | 8 | -1.04 |
| CCS(=O)(=O)NC(C)C1CC2CCC1C2 (stereo not given) | -6 | 0.78 |
| CCc1ccccc1C(=O)N1C[C@@H](CN2CCCN(C)CC2)[C@@H](CO)C1 | -5 | 0.46 |
| Cc1nc(-n2nc(C)c(Cc3ccccc3)c2C)sc1C(=O)N1CCCCC1 | -1 | 0.12 |
| c1ccc(COCc2cn(C[C@H]3CNCCO3)nn2)cc1 | 2 | -0.41 |
| Cc1ccc(N(C2CCN(Cc3cccs3)CC2)S(=O)(=O)c2ccc(F)cc2)cc1F | -4 | 0.35 |

| SMILES | % Inhibition [%] | Z score |
| --- | --- | --- |
| c1ccc(CNc2nc(N3CCCC3)c3nn[nH]c3n2)cc1 | -17 | 2.57 |
| CCCc1nc(C)c(C(=O)N2CC(OC)CC2c2nc(-c3cccnc3)c[nH]2)s1 (stereo not given) | -11 | 0.98 |
| Cn1nnc2c(N3CCN(S(=O)(=O)c4ccc5ccccc5c4)CC3)ncnc21 | -7 | 1.08 |
| Cc1cc(NC(=O)C2CCC(C3CC3)CC2)n2ncnc2n1 (stereo not given) | -7 | 0.83 |
| CN(c1cccnn1)C(=O)[C@H]1CC[C@H](C2CCC2)CC1 | -10 | 1.99 |
| CCc1oc(C(=O)NC(C)(C)CO)cc1C | -9 | 1.21 |
| Cc1c(C(=O)Nc2ccccc2NC2CCCCC2)oc2ccccc12 | -2 | 0.39 |
| CC(C)N1C[C@@H](c2nc(-c3ccsc3)c[nH]2)CC1=O | -1 | 0.21 |
| COCCN1C[C@]2(CCCN(C(=O)c3cn[nH]c3)C2)CCC1=O | -2 | 0.4 |
| O=C(NCCn1ccnn1)N[C@H]1CCc2c1ccc(Cl)c2Cl | -6 | 1.03 |
| CC[C@H](C)Cc1n[nH]c(CCn2nc(C)cc2C)n1 | -19 | 2.6 |
| O=C(NCC(F)(F)F)[C@H]1CCCN(CCc2ccncc2)C1 | 5 | -0.96 |
| Cc1nn(-c2ncc(NC(=O)c3ccco3)cn2)c(C)c1C | -11 | 1.64 |
| CCOc1ccc(S(=O)(=O)N(C)C)cc1NCc1cc2ccccc2o1 | 12 | -1.48 |
| CC(C)Cc1ncc2c(n1)CN(c1noc(C(C)C)n1)C2 | 11 | -1.46 |
| Cc1c(CCC(=O)N[C@@H](C)C2CC2)c(=O)[nH]c2c1c(=O)[nH]n2C | -7 | 0.81 |
| Cc1ccccc1OC1CN(C(=O)NC2CCN(C3CCOCC3)CC2)C1 | 3 | -0.52 |
| C=CCOC[C@@H](O)CN(CCC)Cc1c(-c2ccccc2)noc1N1CCCC1 | -2 | 0.3 |
| CC(C)(C)OC(=O)N1CCN(c2nnc(NC(=O)c3c(F)cccc3F)[nH]2)CC1 | -14 | 1.7 |
| Cc1nsc(N2CCC[C@H](CNS(C)(=O)=O)C2)c1C#N | -21 | 2.26 |
| O=C(Nc1ccncc1)OC1CCCCC1 | 34 | -3.83 |
| CCN(CCCNc1nc(C)cc(OC)n1)S(C)(=O)=O | 3 | -0.65 |

| SMILES | % Inhibition [%] | Z score |
| --- | --- | --- |
| O=S(=O)(c1cccc2nsnc12)N1CC(Nc2ncccn2)C1 | -20 | 2.33 |
| CCN(C[C@H]1CCN(C(=O)Nc2cccc(C)n2)C1)CC(F)(F)F | -10 | 1.28 |
| COc1cc(NC(=O)N[C@@H](CO)C(C)(C)C)sn1 | -6 | 1.32 |
| C[C@H]1CN(C)c2ccccc2CN1C(=O)NCc1ccc(OC(F)F)cn1 | 1 | -0.1 |
| CN(C)CCN(C)CC[C@H]1CN(C(=O)c2ccc(C(F)(F)F)cc2)CC[C@H]1CC(=O)O | 9 | -1 |
| COCc1nc2n(n1)C[C@@H](Nc1ccc(Br)cn1)CC2 | -3 | 0.22 |
| Cc1ccc(C(=O)N2CC(C)CC(C)C2)cc1NC(=O)C1CCS(=O)(=O)C1 (stereo not given) | -11 | 1.69 |
| CC(=O)N1CCc2cc(N3C[C@@H](C(=O)Nc4ccc(F)c(C)c4)CC3=O)ccc21 | -7 | 1.33 |
| Cc1ccc(-c2cc(C#N)c(NC(=O)c3ccc(Cl)cc3Cl)o2)cc1 | -8 | 1.09 |
| COc1cccc(Cn2cnc3c4ccccc4n(Cc4ccccc4F)c3c2=O)c1 | -7 | 0.75 |
| Cc1cc(C(=O)N2CCN(C)C[C@@H]2CC(C)C)c2c(C)n[nH]c2n1 | 1 | -0.1 |
| CCN1c2cc(C)ccc2-n2cccc2C12CCN(C(=O)Nc1ccc(C)c(F)c1)CC2 | -6 | 0.77 |
| CCOC(=O)C(C)(C)c1csc(-c2cnn(C)c2)n1 | -2 | 0.18 |
| CC(C(=O)N(C)CC1CCS(=O)(=O)C1)C(C)(C)C (stereo not given) | 9 | -1.2 |
| Cc1cc(C)n2c(-c3ccccc3C)nnc2n1 | 34 | -4.35 |
| COc1cc(OC)cc(C(=O)N2CCN(C(C(=O)N3CCCCC3C)C3CCCC3)CC2)c1 (stereo not given) | 1 | -0.16 |
| CN(C)c1ccc([C@H]2N(c3ccc(Cl)cc3)C(=O)[C@@H]3CCCN32)cc1 | -7 | 0.87 |
| CC(C1CC1)N(C)S(=O)(=O)NC1CCc2ccccc2C1 (stereo not given) | -9 | 1.13 |
| CC[C@@H](C(=O)N1CCN(Cc2ccc(OC)c(OC)c2OC)CC1)N1C(=O)CCn2nc(C)cc21 | -15 | 1.5 |
